{
  "source": "PubChem BioAssay AID488969",
  "about": "(Vanderbilt High Throughput Screening Facility, 2010)",
  "note": "Whole data set: some 110,000 compounds, median “z-score” near -0.1, cut for the highest 2% near 2. The list shows a part of the results. The source made the active and inactive calls.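 The calls were made as follows: active = z-score in the third read window above 3 or below -3; inactive = the rest.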",
  "data": [
    {"molecular_target": "Metabotropic glutamate receptor 8 (Rattus norvegicus) (UniProt P70579)", "sequence (P70579 whole entry, looked up)": "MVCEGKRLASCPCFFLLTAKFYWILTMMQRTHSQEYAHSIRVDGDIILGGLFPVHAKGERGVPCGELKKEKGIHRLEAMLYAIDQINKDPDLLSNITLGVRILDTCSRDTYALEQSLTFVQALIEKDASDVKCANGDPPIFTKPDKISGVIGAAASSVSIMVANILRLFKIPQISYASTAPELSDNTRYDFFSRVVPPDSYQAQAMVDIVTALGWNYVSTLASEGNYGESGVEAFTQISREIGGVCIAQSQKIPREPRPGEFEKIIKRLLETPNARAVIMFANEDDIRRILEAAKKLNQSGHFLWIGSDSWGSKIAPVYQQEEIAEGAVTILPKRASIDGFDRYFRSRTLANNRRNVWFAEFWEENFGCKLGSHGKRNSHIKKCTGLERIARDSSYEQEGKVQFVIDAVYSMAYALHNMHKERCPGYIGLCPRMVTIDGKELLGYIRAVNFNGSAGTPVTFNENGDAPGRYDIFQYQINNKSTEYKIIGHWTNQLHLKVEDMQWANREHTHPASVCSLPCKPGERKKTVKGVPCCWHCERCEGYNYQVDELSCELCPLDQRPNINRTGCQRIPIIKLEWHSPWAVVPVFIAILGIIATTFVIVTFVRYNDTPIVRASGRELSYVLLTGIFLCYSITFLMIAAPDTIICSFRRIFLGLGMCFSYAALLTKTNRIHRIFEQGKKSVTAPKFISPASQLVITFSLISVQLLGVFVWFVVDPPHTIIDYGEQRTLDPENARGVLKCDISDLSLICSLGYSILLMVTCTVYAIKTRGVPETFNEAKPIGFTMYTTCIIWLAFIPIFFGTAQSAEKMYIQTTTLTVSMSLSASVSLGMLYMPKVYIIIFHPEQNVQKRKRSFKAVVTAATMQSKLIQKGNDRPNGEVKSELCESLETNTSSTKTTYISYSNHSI", "test": "rat mGluR8 modulators via GIRK flux, primary screen, cell-based, thallium flux, HTS (AID 488969)", "conditions": "HEK293 rat mGluR8, GIRK (G protein-gated inwardly rectifying potassium channel) thallium flux, FluoZin2; at 10 µM; stronger effect = higher value", "values": [
      {"smiles": "CCC(=O)N1N=C2C3CCN(CC3)C2C1c1ccccc1", "note": "(configuration not stated)", "z-score": -0.189},
      {"smiles": "CC(C)Oc1cccc(NC(=O)c2cccn(Cc3ccc4c(c3)OC(F)(F)O4)c2=O)c1", "z-score": -0.139},
      {"smiles": "CCCCCn1c(N)c(C(=O)NCc2cccs2)c2nc3ccccc3nc21", "z-score": -0.198},
      {"smiles": "O=[N+]([O-])c1ccc(N2CCNCC2)c2ncccc12", "z-score": -0.0341},
      {"smiles": "Nc1c(C(=O)OC2CCCCC2)c2nc3ccccc3nc2n1CC1CCCO1", "note": "(configuration not stated)", "z-score": "active: -4.66"},
      {"smiles": "O=C(c1cccn2c(=O)c3cc(Br)ccc3nc12)N1CCC2(CC1)OCCO2", "z-score": -0.331},
      {"smiles": "Cc1ccc(-n2nc(C)cc2NC(=O)COc2cc(C)cc3oc(=O)c4c(c23)CCC4)cc1", "z-score": -1.33},
      {"smiles": "Nc1ccc(S(=O)(=O)N2CCCCC2c2cccnc2)cc1", "note": "(configuration not stated)", "z-score": -0.0891},
      {"smiles": "C=CCN1C(=O)NC(=O)/C(=C/c2ccc(OC)c(CSc3ccccn3)c2)C1=O", "z-score": -0.342},
      {"smiles": "CC(C(=O)Nc1ccc(Br)cc1C(=O)c1ccccc1)N1CCOCC1", "note": "(configuration not stated)", "z-score": -0.634},
      {"smiles": "CCCCn1c(O)c(/C(CC)=N/N2CCCCC2c2cccnc2)c(=O)[nH]c1=S", "note": "(configuration not stated)", "z-score": -0.36},
      {"smiles": "CCOc1ccccc1N1C(=O)NC(=O)/C(=C/c2ccc3c4c(cccc24)CC3)C1=O", "z-score": -0.192},
      {"smiles": "Cn1c(O)c(C=NC2C(=O)C3(C)CCC2C3(C)C)c(=O)n(C)c1=O", "note": "(configuration not stated)", "z-score": 0.302},
      {"smiles": "Nc1ccccc1C(=O)OCC(=O)N1CCc2ccccc21", "z-score": -0.195},
      {"smiles": "O=c1[nH]c(=O)n(Cc2ccco2)c(O)c1C=NCCN1CCOCC1", "z-score": 1.02},
      {"smiles": "Nc1c(C(=O)NCCc2ccccc2)c2nc3ccccc3nc2n1CCN1CCOCC1", "z-score": -0.0841},
      {"smiles": "CC1(C)CC(=O)C(C=NCCN2CCN(C(=O)Cc3ccc(Cl)cc3)CC2)=C(O)C1", "z-score": -0.133},
      {"smiles": "CC(C)c1ccc(N2C(=O)NC(=O)/C(=C/c3cnc(-c4ccccc4)nc3)C2=O)cc1", "z-score": -0.232},
      {"smiles": "CCC(=Nc1cc(OC)ccc1OC)c1c(O)[nH]c(=O)[nH]c1=O", "z-score": 0.229},
      {"smiles": "NC(=O)CSP(=O)(c1ccccc1)c1ccccc1", "z-score": -0.255},
      {"smiles": "CSc1ccc(C(=O)C(C)(C)N2CCOCC2)cc1", "z-score": -0.262},
      {"smiles": "CCC(=O)Nc1cc(C(=O)N2CCC3(CC2)OCCO3)ccc1S(=O)(=O)c1ccc(C)cc1", "z-score": 0.0209},
      {"smiles": "Cc1ccc2nc(N3CCN(C)CC3)[nH]c2c1", "z-score": -0.362},
      {"smiles": "O=c1[nH]c(N2CCN(Cc3ccc4c(c3)OCO4)CC2)nc2c1CCC2", "z-score": 0.034},
      {"smiles": "Fc1cccc(F)c1CN1CCN(Cc2c(F)cccc2F)CC1", "z-score": -0.164},
      {"smiles": "O=C(O)C1C2CCC(O2)C1C(=O)NC1CCCCC1", "note": "(configuration not stated)", "z-score": 0.954},
      {"smiles": "CCCCC1(CN2CCCC2=O)C(=O)NC(=O)NC1=O", "z-score": -0.247},
      {"smiles": "Cc1cccc(NP(=O)(Oc2ccccc2F)Oc2ccccc2F)c1", "z-score": -0.239},
      {"smiles": "CC(=O)Nc1ccccc1C(=O)OCC(=O)c1ccc2ccccc2c1", "z-score": -0.0887},
      {"smiles": "COc1cccc(OC)c1C(=O)Nc1nc(N)n(-c2ccccc2)n1", "z-score": 0.163},
      {"smiles": "CCOC(=O)C(O)(c1ccc(N(C)C(=O)COc2ccccc2)cc1)C(F)(F)F", "note": "(configuration not stated)", "z-score": -0.189},
      {"smiles": "Cn1c(O)c(C(=N)COc2ccccc2)c(=O)n(C)c1=O", "z-score": -0.0284},
      {"smiles": "COc1ccc(C2C(C#N)=C(N)Oc3c2c(=O)oc2ccccc32)cc1Cn1cc([N+](=O)[O-])cn1", "note": "(configuration not stated)", "z-score": -0.874},
      {"smiles": "Cc1ccc(N2C(=O)/C(=C/c3ccc(CN(CCC#N)S(C)(=O)=O)o3)C(=O)NC2=S)cc1", "z-score": 0.251},
      {"smiles": "CCOC(=O)c1c(C)n(Cc2ccccc2)c2ccc(OCC(O)CN3C(=O)CNC3=O)cc12", "note": "(configuration not stated)", "z-score": -0.657},
      {"smiles": "O=c1[nH]c(=O)n(Cc2ccco2)c(O)c1C=NCc1ccc2c(c1)OCO2", "z-score": 0.136},
      {"smiles": "O=C(N/N=C/c1c(O)n(CCC2=CCCCC2)c(=O)[nH]c1=O)c1ccccc1", "z-score": -0.134},
      {"smiles": "CCCCCCn1c(O)c(C=Nc2c(C)n(C)n(-c3ccccc3)c2=O)c(=O)[nH]c1=O", "z-score": -0.785},
      {"smiles": "CC(=NCC1CCCO1)c1c(O)n(-c2ccccc2)c(=O)[nH]c1=O", "note": "(configuration not stated)", "z-score": 0.0257},
      {"smiles": "O=C1NC(c2cccnc2)Nc2sc3c(c21)CCCC3", "note": "(configuration not stated)", "z-score": -0.06},
      {"smiles": "C=CCOc1ccc(CC2C(=O)N(C)C(=O)N(C)C2=O)cc1", "z-score": -0.143},
      {"smiles": "CCOC(=O)c1cn2nc(OP(=S)(OCC)OCC)cc2nc1C", "z-score": -0.867},
      {"smiles": "C[C@H]1CCCC(=O)CCC/C=C/c2cc(O)cc(O)c2C(=O)O1", "z-score": 0.3},
      {"smiles": "COc1ccccc1/C=N/N=C(/N)N[N+](=O)[O-]", "z-score": 0.519},
      {"smiles": "CN(C)C(Cc1ccccc1)C(=O)c1ccc(-c2ccccc2)cc1", "note": "(configuration not stated)", "z-score": 0.0488},
      {"smiles": "Cc1cccc(N2C(=O)/C(=C/N3CCN(C(=O)c4ccco4)CC3)C(=O)NC2=S)c1", "z-score": -0.0877},
      {"smiles": "CCCCCCN=C(CC)c1c(O)n(CCCC)c(=O)[nH]c1=O", "z-score": -0.63},
      {"smiles": "OCCN(CC#CC(O)(c1ccccc1)C1CCCC1)CCO", "note": "(configuration not stated)", "z-score": -0.0873},
      {"smiles": "CN(CCc1ccccc1)Cc1ccccc1[N+](=O)[O-]", "z-score": -0.0898},
      {"smiles": "CCN1CCN(c2ccc([N+](=O)[O-])cc2C=C2C(=O)NC(=O)NC2=O)CC1", "z-score": -0.0685},
      {"smiles": "CCOC(=O)N(c1ccccc1)P1(=S)OCC(C)O1", "note": "(configuration not stated)", "z-score": -0.181},
      {"smiles": "Cc1cc(S(=O)(=O)NCC(C)C)ccc1OCC(=O)N1CCN(Cc2ccccc2)CC1", "z-score": 0.897},
      {"smiles": "CC1(C)CC(=O)C2=C(C1)NC(=O)C21C(C(=O)OC(C)(C)C)=C(N)Oc2ccc(Br)cc21", "note": "(configuration not stated)", "z-score": -0.103},
      {"smiles": "O=C1NC(=O)N(CCC2=CCCCC2)C(=O)/C1=C/c1ccc(O)cc1", "z-score": -0.103},
      {"smiles": "Cc1cccc(NC(=S)N2CC3CC(C2)c2cccc(=O)n2C3)c1C", "note": "(configuration not stated)", "z-score": -0.188},
      {"smiles": "CCn1c(P(C)(=O)O)nc2ccccc21", "z-score": -0.338},
      {"smiles": "CCOC(=O)/C(CCCN(CC)CC)=N\\O", "z-score": -0.203},
      {"smiles": "COc1ccccc1CC1C(=O)C2CCN1CC2", "note": "(configuration not stated)", "z-score": 0.604},
      {"smiles": "CCCC12CN3CC(CCC)(CN(C1)C3c1ccccn1)C2=O", "note": "(configuration not stated)", "z-score": 0.177},
      {"smiles": "O=c1[nH]c(CN2CCNCC2)nc2ccccc12", "z-score": -0.132},
      {"smiles": "CCC1=C(C)C(N2CCOCC2)=NP(N2CCOCC2)(N2CCOCC2)=N1", "z-score": 0.0677},
      {"smiles": "CCOC(=O)C(O)(c1ccc(NC(=S)NC(=O)c2ccc(Cl)cc2Cl)cc1)C(F)(F)F", "note": "(configuration not stated)", "z-score": 1.47},
      {"smiles": "Cc1ccc(-n2c(C)cc(/C=C3/C(=O)NC(=O)N(C)C3=O)c2C)cc1", "z-score": -1.31},
      {"smiles": "COC(=O)C1=Nc2ccccc2/C1=C\\c1c(O)n(-c2ccc(OC)cc2)c(=O)[nH]c1=O", "z-score": 0.00423},
      {"smiles": "Cc1nn(Cc2ccccc2)c(Cl)c1C(=O)OC(C)C(=O)Nc1ccc(F)cc1Cl", "note": "(configuration not stated)", "z-score": 0.0724},
      {"smiles": "CCOc1ccc(-n2c(O)c(C=NCCN3CCNCC3)c(=O)[nH]c2=O)cc1", "z-score": 0.65},
      {"smiles": "Cc1nc2c(=O)n(C)c(=O)nc-2n(C)n1", "z-score": 0.166}
    ]}
  ]
}
